Assay results: patent US9238810B2, “Polypeptide” (AFFIBODY AB, priority 2008, dated 2016)

Tests used:
[1] = Circular dichroism analysis with variable temperature measurement; format: physicochemical; details: CD 220 nm during heating to 90° C.; 0.5 mg/ml in PBS
[2] = biological target: T1, palivizumab (human monoclonal IgG, without VH3 domain) (Homo sapiens, UniProt P01857); assay: Biacore surface plasmon resonance kinetic analysis on immobilized palivizumab; format: binding; details: for ka / kd: 25 nM and 100 nM injections, 1:1 binding model; for Kd: estimated, 1:1 Langmuir binding model
T1 construct: purchased Apoteket article no; 549170

[3] = Characteristics of purified proteins (isoelectric point); format: physicochemical
[4] = Solubility analysis of lyophilized protein in PBS; format: physicochemical; details: for Expected concentration of dissolved molecules: PBS added to lyophilized protein, based on the amount of protein in each vial; for Appearance of solution after raising pH: pH raised to approximately 10 with 50% NaOH

ka [2] [M⁻¹ s⁻¹] | kd [2] [s⁻¹] | Kd [2] [nM] | Substance | Tm [1] [°C] | Isoelectric point [3] | Expected concentration of dissolved molecules [4] [mg/mL] | Appearance of solution after raising pH [4]
9.6e+06 | 0.043 | 5 | Z02742: IgG Fc-binding Z variant polypeptide, clone derived from selection round 5 (VDAKFWKEQQHAFYEILHLPNLTEGQKHAFIRALRGDPSQSARLLARAKKLDDAQAPK; IgG Fc-binding polypeptide) [Protein Z02742] | 63 | 10.3 | 30 | clear solution
2.6e+06 | 0.045 | 18 | Z02726: IgG Fc-binding Z variant polypeptide, clone derived from selection round 5 (VDAKFWKEQQHAFYEILHLPNLTEDQRQAFIASLRKDPSQSARLLAGAKKLDDAQAPK; IgG Fc-binding polypeptide) [Protein Z02726] | 62 | 7.7 | 30 | clear solution
